Laboratory results from ChEMBL document CHEMBL4888484, “Replenishing the malaria drug discovery pipeline: Screening and hit evaluation of the MMV Hit Generation Library 1 (HGL1) against asexual blood stage Plasmodium falciparum ,using a nano luciferase reporter read-out” (2022).
Hit rate of the full screen: of about 150,000 compounds, about 540 (0.36%) showed an effect of 50% or more. The list shows a part of the results.

These compounds were tested on Plasmodium falciparum (assay: Primary screen in NF54 nanoGlo assay, in single point, at 2uM, 72h; a lower Z score goes with more inhibition). Settings: timepoint 72 hour.
Format: functional, Erythrocyte

Question: For `O=C(Nc1nc(C(=O)N2CCN(c3ncccn3)CC2)co1)c1ccsc1`, which “% Inhibition” value is on record?
Answer: -2%

Question: What about the Z score of the same compound?
Answer: 0.31

Question: What does the source list for `Cn1ccnc1[C@H]1OCC[C@@H]1NC(=O)c1cnc2[nH]nnc2c1`?
Answer: % Inhibition: 8%; Z score: -0.96

Question: What does the source list for `Cc1cc(C)c(CNCC2CCC(C(N)=O)O2)c(C)c1` (configuration not stated)?
Answer: % Inhibition: -4%; Z score: 0.35

Question: `Cc1nn(S(=O)(=O)c2ccc(F)cc2)c(C)c1S(=O)(=O)N1CCCCCC1` was tested. Which “% Inhibition” value did it give?
Answer: -14%

Question: What about the Z score of the same compound?
Answer: 1.28

Question: How did the “% Inhibition” value turn out when `CC(=O)NC(CC(=O)N1CCC[C@H]2C(=O)N(Cc3ccccc3)C(=O)[C@H]21)c1ccc(C)cc1` (some centres not stated) was run?
Answer: -3%

Question: And the Z score?
Answer: 0.53

Question: How did the “% Inhibition” value turn out when `C[C@H]1Cc2cccc3c(O)c(C(=O)NCCCc4ccccc4)c(=O)n1c23` was run?
Answer: -2%

Question: What about the Z score of the same compound?
Answer: 0.21

Question: What does the source list for `O=c1[nH]ccn2c(CCNc3nc(C4CCCCC4)ns3)nnc12`?
Answer: % Inhibition: -6%; Z score: 0.73

Question: What does the source list for `Cc1ccn(CC(=O)N(Cc2ccccc2)C2CC2)c(=O)c1`?
Answer: % Inhibition: -8%; Z score: 0.69

Question: Which results are given for `COCCn1cc(CNC[C@H]2CCCn3cc(C(C)(C)C)nc32)cn1`?
Answer: % Inhibition: -8%; Z score: 0.69

Question: Which “% Inhibition” value does the source give for `COc1cc(Cl)c(C)cc1NC(=O)c1ccccc1NC(=O)CN(C)Cc1ccco1` here?
Answer: -5%

Question: What about the Z score of the same compound?
Answer: 0.77

Question: What does the source list for `CC(C)c1cccc(S(=O)(=O)N2C[C@H]3OCCN(C)[C@H]3C2)c1`?
Answer: % Inhibition: -2%; Z score: 0.36

Question: `O=C(Nc1nc(=S)ss1)c1ccc(Cl)cc1` was tested. Which “% Inhibition” value did it give?
Answer: -11%

Question: What about the Z score of the same compound?
Answer: 1.88

Question: `COCc1nc(C(=O)OCC(=O)NCc2ccc3c(c2)OCO3)cs1` was tested. Which “% Inhibition” value did it give?
Answer: -1%

Question: What about the Z score of the same compound?
Answer: 0.08

Question: For `Cc1noc(C)c1C[C@H](C)NS(=O)(=O)CC(C)(C)CC#N`, which “% Inhibition” value is on record?
Answer: -1%

Question: What about the Z score of the same compound?
Answer: 0.07

Question: With `COc1ccc(CC(=O)Nc2ccc(-n3cnnn3)c(OC)c2)cc1OC` as the compound, how does the “% Inhibition” value read?
Answer: -5%

Question: What about the Z score of the same compound?
Answer: 0.56

Question: Which results are given for `CCc1nnc(CN(CC)Cc2cccnc2N)o1`?
Answer: % Inhibition: -6%; Z score: 1.02

Question: How did the “% Inhibition” value turn out when `COc1ccc(CNCCc2ncccc2C)cc1OC[C@@H](O)CN1CCCCCCC1` was run?
Answer: -11%

Question: And the Z score?
Answer: 1.36

Question: How did the “% Inhibition” value turn out when `CCc1cccc(NC(=O)CN2CCCO[C@@H](C)C2)c1` was run?
Answer: -1%

Question: And the Z score?
Answer: 0.23

Question: `NC(=O)c1cc(OC2CCN(Cc3ccc(-c4ccn[nH]4)o3)CC2)ccn1` was tested. Which “% Inhibition” value did it give?
Answer: -1%

Question: And the Z score?
Answer: 0.06

Question: Which “% Inhibition” value does the source give for `COc1ccc2nc(-c3nc(C)cs3)[nH]c(=O)c2c1` here?
Answer: -14%

Question: And the Z score?
Answer: 2.04

Question: Which results are given for `CCc1ocnc1C(=O)N1C[C@@H]2c3ccc(OC)cc3OC[C@]2(CO)C1`?
Answer: % Inhibition: -11%; Z score: 1.44

Question: Which “% Inhibition” value does the source give for `N#CCN(Cc1nnc(-c2ccc(Cl)cc2)o1)C1CCCC1` here?
Answer: -12%

Question: What about the Z score of the same compound?
Answer: 1.23

Question: Which results are given for `O=C1CCc2cc(S(=O)(=O)N3CCCc4ccccc43)cc3c2N1CCC3`?
Answer: % Inhibition: -11%; Z score: 2.16

Question: `CCc1noc2nc(C)nc(N3CCC[C@H](C(=O)NCc4ccccc4C)C3)c12` was tested. Which “% Inhibition” value did it give?
Answer: 4%

Question: And the Z score?
Answer: -0.55

Question: What does the source list for `O=C(Nc1ccc2[nH]c(C3CC3)nc2c1)c1ccc(Br)o1`?
Answer: % Inhibition: -17%; Z score: 1.83

Question: Which “% Inhibition” value does the source give for `O=C(NCC1CCOCC1)Nc1ccncn1` here?
Answer: -3%

Question: And the Z score?
Answer: 0.26

Question: For `CN(C)c1ccc(C2=Nc3cc(F)ccc3NC(c3ccc(C(C)(C)C)cc3)=N2)cc1`, which “% Inhibition” value is on record?
Answer: -4%

Question: What about the Z score of the same compound?
Answer: 0.51

Question: Which “% Inhibition” value does the source give for `O=C(Cn1ccc2ccccc21)N1CC(c2nc(-c3ccco3)no2)C1` here?
Answer: 4%

Question: What about the Z score of the same compound?
Answer: -0.5

Question: Which results are given for `CC(C)c1ccc2c(c1)[C@@H](NC(=O)NCc1cccnc1)CC2`?
Answer: % Inhibition: -10%; Z score: 1.28

Question: Which results are given for `O=C(Nc1ccc2c(c1)OCO2)C1CCN(c2ccc(-c3cccs3)nn2)CC1`?
Answer: % Inhibition: 2%; Z score: -0.33

Question: `COCC(=O)Nc1cc(C(=O)N[C@H]2CCOC2)c2c(c1)nc(C1CCC1)n2C` was tested. Which “% Inhibition” value did it give?
Answer: -8%

Question: And the Z score?
Answer: 1.47

Question: `Cc1ccc2cc1Oc1cccc(c1)CO[C@H]1CCN(C(=O)CCn3cnnn3)C[C@H]1NC(=O)CN(C)C2=O` was tested. Which “% Inhibition” value did it give?
Answer: -3%

Question: And the Z score?
Answer: 0.58

Question: Which “% Inhibition” value does the source give for `CCc1ncnc(N2CC(N(C)OC)C2)c1F` here?
Answer: -8%

Question: What about the Z score of the same compound?
Answer: 1.05

Question: How did the “% Inhibition” value turn out when `Cc1noc(C)c1CCC(=O)NC(c1ccccn1)[C@H]1C[C@H](O)C1` (some centres not stated) was run?
Answer: -6%

Question: What about the Z score of the same compound?
Answer: 0.98

Question: What does the source list for `CC(C)c1ccc(NC(=O)C[C@@H]2N=C(NC(=N)Nc3ccccc3)NC2=O)cc1`?
Answer: % Inhibition: 5%; Z score: -0.65

Question: How did the “% Inhibition” value turn out when `CC(C)(C)c1cccc(OCCNC(=O)N2C3CCC2CC(O)C3)c1` (configuration not stated) was run?
Answer: 5%

Question: What about the Z score of the same compound?
Answer: -0.96

Question: For `CC1OC(=O)NC1c1nc(-c2ccc(Br)cc2)no1` (configuration not stated), which “% Inhibition” value is on record?
Answer: -3%

Question: And the Z score?
Answer: 0.44

Question: What does the source list for `c1csc(CN2CCCc3ccccc32)c1`?
Answer: % Inhibition: -1%; Z score: 0.16

Question: How did the “% Inhibition” value turn out when `COc1ccc(NC(=O)NC(C(F)(F)F)C(F)(F)F)cc1` was run?
Answer: -7%

Question: And the Z score?
Answer: 1

Question: `CCN1CC2(CCN(c3cc(N)nc(N)n3)CC2)C[C@@H](c2ccccc2)C1=O` was tested. Which “% Inhibition” value did it give?
Answer: -15%

Question: What about the Z score of the same compound?
Answer: 1.4

Question: What does the source list for `CCS(=O)(=O)C[C@H](C)N(C)c1ccc(C(F)(F)F)nn1`?
Answer: % Inhibition: -10%; Z score: 2
